# Screen size: about 310,000 compounds; about 14,000 (4.5%) showed an effect of 50% or more. Effects have a minus sign here. The list shows a part of the results.
# Target: human ether-à-go-go-related gene (hERG) potassium channel (human, UniProt Q12809)
# Assay: primary screen, population patch clamp on CHO cells stably expressing hERG
# 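Further: peak tail current of the secondary pulse compared with the same well before compound.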
# Sequence of human ether-à-go-go-related gene (hERG) potassium channel (Q12809 whole entry, looked up): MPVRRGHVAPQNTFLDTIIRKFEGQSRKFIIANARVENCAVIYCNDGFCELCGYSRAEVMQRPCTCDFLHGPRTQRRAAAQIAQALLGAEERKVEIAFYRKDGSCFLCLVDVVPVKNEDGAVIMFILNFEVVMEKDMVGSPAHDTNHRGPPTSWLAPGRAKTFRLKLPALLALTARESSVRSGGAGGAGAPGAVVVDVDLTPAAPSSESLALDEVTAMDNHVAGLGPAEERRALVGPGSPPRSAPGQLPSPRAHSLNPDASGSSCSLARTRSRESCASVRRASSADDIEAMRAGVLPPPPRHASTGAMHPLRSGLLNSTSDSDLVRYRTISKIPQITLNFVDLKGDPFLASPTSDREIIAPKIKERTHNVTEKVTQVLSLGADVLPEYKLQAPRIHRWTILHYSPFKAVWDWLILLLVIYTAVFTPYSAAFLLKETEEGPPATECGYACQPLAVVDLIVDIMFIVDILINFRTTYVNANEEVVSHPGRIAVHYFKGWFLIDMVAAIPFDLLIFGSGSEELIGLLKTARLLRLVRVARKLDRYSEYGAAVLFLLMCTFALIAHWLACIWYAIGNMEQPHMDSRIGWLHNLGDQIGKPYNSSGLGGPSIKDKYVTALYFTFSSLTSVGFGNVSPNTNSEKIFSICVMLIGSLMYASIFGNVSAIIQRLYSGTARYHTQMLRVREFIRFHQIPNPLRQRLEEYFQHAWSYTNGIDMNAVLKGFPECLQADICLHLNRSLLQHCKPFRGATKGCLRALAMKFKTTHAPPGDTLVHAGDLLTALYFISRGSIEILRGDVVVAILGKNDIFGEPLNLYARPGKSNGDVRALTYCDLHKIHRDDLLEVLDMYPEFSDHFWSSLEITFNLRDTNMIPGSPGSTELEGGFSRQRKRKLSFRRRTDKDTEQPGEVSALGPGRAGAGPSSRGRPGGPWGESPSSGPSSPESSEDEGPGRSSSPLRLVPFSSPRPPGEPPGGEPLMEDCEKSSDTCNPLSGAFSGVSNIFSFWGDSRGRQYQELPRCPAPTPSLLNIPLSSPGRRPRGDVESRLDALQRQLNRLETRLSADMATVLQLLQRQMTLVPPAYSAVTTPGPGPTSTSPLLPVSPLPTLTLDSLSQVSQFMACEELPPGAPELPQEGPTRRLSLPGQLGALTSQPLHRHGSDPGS
row,Structure (SMILES),"hERG current change (%, negative = inhibition) at 10uM [%]"
1,O=C(CN(Cc1ccccc1Cl)C(=O)c1csnn1)NCc1ccc2c(c1)OCO2,-51.4
2,CSc1ccc(-c2cc(=O)c3ccccc3o2)cc1,-0.926
3,Nc1ccc2c(c1)C(=O)N(CCCCCC(=O)O)C2,5.05
4,COc1ccc(Cn2c(=O)[nH]c3cc(C(=O)N4CCN(c5ccccc5)CC4)ccc3c2=O)cc1,9.23
5,O=C(CSc1ccccc1C(=O)O)NCC1CCCCC1,-13
6,COc1ccc(-n2nc(C)c3onc(C)c3c2=O)cc1,10
7,Cc1ccccc1C(=O)NC(C)C(c1cccs1)N1CCOCC1 (centres unmarked),-18.3
8,CC[C@@]1(c2ccccc2OC)C(=O)N(C(=O)OC)N1C(=O)OC,17.5
9,CCCNC(=O)NC(=O)COC(=O)c1ccc(S(=O)(=O)N(C)c2ccccc2OC)cc1,10.5
10,Cc1nc(C(C)(C)O)n(-c2ccccc2)n1,4.91
11,Cn1nnc(NC(=O)CSc2nnnn2-c2ccc(F)cc2)n1,-9.19
12,COc1ccc(-c2[nH]ncc2CN(C)C(C)c2ccncn2)c(F)c1 (centres unmarked),-0.232
13,CNC(=O)c1ccc(-n2nc(C)cc2-c2ccccc2)cc1,6.86
14,CC(C)(C)c1cc(OC(=O)Cc2ccccc2)ccc1O,17.1
15,CCCCCCC1CCC(C(=O)Nn2c(C)nc3ccccc3c2=O)CC1 (centres unmarked),25.7
16,CC(=O)O.CN1CCCC(CN2c3ccccc3Sc3ccccc32)C1 (centres unmarked),-28.4
17,Cl.NCc1ccccc1,-5.79
18,Cc1c(N(C(=O)Nc2ccccc2)C2=NCC(C)S2)c(=O)n(-c2ccccc2)n1C (centres unmarked),-28.8
19,Cc1noc(C)c1COC(=O)c1cc2c3ccccc3n(C)c2s1,7.19
20,COc1cc(OC)cc(C(=O)N[C@H](C(=O)Nc2nc3ccc(S(C)(=O)=O)cc3s2)C(C)C)c1,-8.64
21,O=C(c1ccc2nc3ccc(Cl)cc3c(=O)n2c1)N1CCC2(CC1)OCCO2,-40.3
22,N#C/C(=C/c1ccc(-c2ccc(C(=O)O)c(Cl)c2)o1)C(=O)NCC1CCCO1 (centres unmarked),12.3

row,Structure (SMILES),"hERG current change (%, negative = inhibition) at 10uM [%]"
1,O=S(=O)(c1cccc2nonc12)N1CCCCCC1,5.98
2,Cc1ccc(S(=O)(=O)N2CCC(=O)N(C(COCc3ccc(C(F)(F)F)cc3)C(C)C)CC2)cc1 (centres unmarked),-36.7
3,NS(=O)(=O)c1cccc(NC(=O)COC(=O)CN2C(=O)C3CC=CCC3C2=O)c1 (centres unmarked),23.4
4,C=CCOC(=O)C(=O)/C=C/c1c(C)n(C)n(-c2ccccc2)c1=O,27.2
5,CCn1c(=O)cc(N2CCC3(CC2)OCCO3)[nH]c1=O,10.1
6,COc1cc(Cn2c(-c3ccc(O)c(OC)c3)nc3ccccc32)ccc1O,-49.3
7,CCOC(=O)c1cnn(-c2ccccc2)c1-n1cccc1C(=O)C(=O)Nc1ccccc1C(F)(F)F,-1.11
8,O=C1CN(c2ccc(Cl)cc2)C(=O)CN1NC(=S)Nc1ccc(Cl)cc1,-3.95
9,COC(=O)Oc1ccc(/C=N/NC(=O)CSCc2ccccc2Br)cc1OC,-22.3
10,CC(Sc1ccc(Br)cc1)C(N)=O (centres unmarked),10.9
11,Cc1c(C(=O)O)sc(=S)n1CCOc1ccccc1,13.2
12,C=CCN1C(=O)C(CC(=O)Nc2ccccc2F)S/C1=N\c1nccs1 (centres unmarked),7.51
13,O=c1ccn(Cc2ccccc2)cc1,13.3
14,COc1ccccc1N1CCN(C(=O)c2cn(-c3ccccc3)nc2-c2cccnc2)CC1,-50.2
15,COC(=O)c1nc(N)sc1-c1ccc(Cl)c(Cl)c1,-4.08
16,COc1ccc(CCNC(=O)CSc2nc(C)nc3sccc23)cc1OC,-2.67
17,Cc1cc(SCC(=O)Nc2cccc(S(N)(=O)=O)c2)c(C)cc1Br,30.8
18,COc1ccc(Br)c(C(=O)N2CCN(S(=O)(=O)c3cccs3)CC2)c1,-9.75
19,CCCn1c(N)c(C(=O)CSc2nc(C)cs2)c(=O)[nH]c1=O,-23.3
20,CC(C)n1nnnc1SCC(=O)Nc1ccccc1F,4.86
21,Cn1c(Cn2nnc3ccccc32)nnc1SCC(=O)c1ccc(F)cc1,-14.2
22,N#CCCNS(=O)(=O)c1ccc(C(=O)OCC(=O)Nc2ccc3c(c2)OCO3)cc1,3.84

# — PMC4336329 (PLoS ONE, 2015)
